Reference: the supplement of paper PMC7826260
The other results are listed elsewhere or left out. Each Rep nickase domain was tested in vitro on the same pool of single strands (3 µM enzyme, 1 h, 37 °C); shown is the middle of each 90-letter strand. The score is log2 (uncut reads / reads without enzyme); strong cutting gives strongly negative numbers. There is no active / inactive call. Counts are relative to all reads; uncut strands gain when others are lost, and binding without cutting may add a little.

Tests used:
Experiment in all cases: uncleaved DNA left, log2 of reads against the no-enzyme library (log2 ratio); higher = less cleavage (more negative = more Rep cleavage of the k-mer); sequences stand for … in CTCGTCCG…ACCGGAGA
[1] = test system: T1, Rep nickase domain of Muscovy duck circovirus
T1 sequence (residues 1-111, tag not shown): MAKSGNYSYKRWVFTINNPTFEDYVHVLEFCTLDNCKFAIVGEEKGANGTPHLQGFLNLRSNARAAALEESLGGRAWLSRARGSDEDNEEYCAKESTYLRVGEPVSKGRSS
Method: (§1)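 A pool of 90-nt single-stranded DNAs with seven random bases just before the constant AC of the nick site (name = the seven bases) was cut by 3 µM recombinant His6-SUMO-tagged Rep nickase domain (300 nM DNA, 50 mM HEPES pH 8.0, 50 mM NaCl, 1 mM MnCl2, 1 h, 37 °C, three replicates). Uncut DNA was amplified and sequenced.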

[2] = test system: T2, Rep nickase domain of banana bunchy top virus
T2 sequence (residues 1-94, tag not shown): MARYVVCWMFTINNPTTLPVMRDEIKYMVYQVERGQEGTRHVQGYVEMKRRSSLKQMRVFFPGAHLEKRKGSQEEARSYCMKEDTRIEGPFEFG
Method: as §1

[3] = test system: T3, Rep nickase domain of cabbage leaf curl virus
T3 sequence (residues 1-116, tag not shown): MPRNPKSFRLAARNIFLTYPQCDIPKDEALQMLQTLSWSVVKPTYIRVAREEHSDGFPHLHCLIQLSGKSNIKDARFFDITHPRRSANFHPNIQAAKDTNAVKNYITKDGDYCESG
Method: as §1

[4] = test system: T4, Rep nickase domain of chickpea chlorotic dwarf virus
T4 sequence (residues 1-124, tag not shown): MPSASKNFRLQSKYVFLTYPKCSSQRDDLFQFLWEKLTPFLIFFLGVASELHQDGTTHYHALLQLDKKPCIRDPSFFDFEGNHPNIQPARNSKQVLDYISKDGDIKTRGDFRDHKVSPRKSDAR
Method: as §1

[5] = test system: T5, Rep nickase domain of faba bean necrotic yellows virus
T5 sequence (residues 1-98, tag not shown): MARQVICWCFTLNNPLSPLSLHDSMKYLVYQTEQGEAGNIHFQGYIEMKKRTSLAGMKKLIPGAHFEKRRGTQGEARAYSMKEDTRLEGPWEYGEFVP
Method: as §1

[6] = test system: T6, Rep nickase domain of maize striate mosaic virus
T6 sequence (residues 1-117, tag not shown): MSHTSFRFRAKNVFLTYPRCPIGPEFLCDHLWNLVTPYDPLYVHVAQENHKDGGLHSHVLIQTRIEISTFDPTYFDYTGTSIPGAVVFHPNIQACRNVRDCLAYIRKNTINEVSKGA
Method: as §1

[7] = test system: T7, Rep nickase domain of porcine circovirus 2
T7 sequence (residues 2-116, tag not shown): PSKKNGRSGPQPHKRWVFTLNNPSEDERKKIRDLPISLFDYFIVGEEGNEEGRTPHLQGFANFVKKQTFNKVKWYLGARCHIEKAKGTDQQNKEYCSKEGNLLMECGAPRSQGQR
Method: as §1

[8] = test system: T8, Rep nickase domain of tomato golden mosaic virus
T8 sequence (residues 1-124, tag not shown): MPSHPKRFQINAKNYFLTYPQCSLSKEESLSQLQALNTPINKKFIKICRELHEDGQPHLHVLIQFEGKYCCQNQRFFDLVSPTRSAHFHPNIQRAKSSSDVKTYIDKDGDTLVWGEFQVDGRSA
Method: as §1

[9] = test system: T9, Rep nickase domain of tomato yellow leaf curl virus
T9 sequence (residues 1-136, tag not shown): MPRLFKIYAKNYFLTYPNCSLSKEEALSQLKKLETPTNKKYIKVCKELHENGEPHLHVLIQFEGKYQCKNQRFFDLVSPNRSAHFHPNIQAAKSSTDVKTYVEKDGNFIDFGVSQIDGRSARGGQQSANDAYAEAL
Method: as §1

[10] = test system: T10, Rep nickase domain of wheat dwarf virus
T10 sequence (residues 1-137, tag not shown): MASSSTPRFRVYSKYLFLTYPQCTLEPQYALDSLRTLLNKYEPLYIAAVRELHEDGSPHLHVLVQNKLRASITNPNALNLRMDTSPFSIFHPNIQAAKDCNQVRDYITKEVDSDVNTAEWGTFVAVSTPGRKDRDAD
Method: as §1

Sequence | uncleaved DNA left (log2) [1] | uncleaved DNA left (log2) [2] | uncleaved DNA left (log2) [3] | uncleaved DNA left (log2) [4] | uncleaved DNA left (log2) [5] | uncleaved DNA left (log2) [6] | uncleaved DNA left (log2) [7] | uncleaved DNA left (log2) [8] | uncleaved DNA left (log2) [9] | uncleaved DNA left (log2) [10]
TGATCCC | 0.0667 | 0.137 | 0.47 | 0.651 | 0.112 | 0.891 | 0.0666 | 0.0513 | 0.0731 | 0.167
AGCCCTA | 0.126 | 0.0569 | 0.723 | 1.19 | 0.0172 | 1.66 | 0.0526 | 0.0462 | 0.0933 | 0.243
CCCGCCA | -0.238 | -0.0231 | -0.0892 | -0.865 | -0.0539 | -0.479 | -0.159 | 0.0106 | -0.0854 | -0.043
AAGGCAT | 0.0893 | 0.161 | 0.396 | 1.66 | -0.0737 | 1.83 | 0.135 | 0.0393 | -0.104 | 0.107
CTCGTAA | 0.0716 | -0.013 | -0.0547 | -0.338 | 0.245 | -0.613 | 0.143 | 0.0691 | 0.123 | 0.105
GATCCGG | 0.0849 | 0.141 | 0.567 | 1.58 | 0.11 | 1.88 | 0.151 | 0.165 | 0.0341 | 0.0598
GAACCGC | -0.0802 | -0.051 | -0.0751 | -0.389 | -0.0602 | -0.39 | -0.158 | 0.0047 | -0.0283 | 0.0282
CCAAGGT | 0.153 | 0.0268 | 0.427 | 1.1 | 0.134 | 1.44 | 0.197 | 0.188 | 0.0202 | 0.111
GAATGAT | -0.476 | 0.0487 | -2.87 | -2.22 | 0.0831 | -1.52 | -2.87 | -2.2 | -0.0391 | -2.48
CCGCCAG | 0.0242 | 0.146 | -0.357 | -0.361 | 0.185 | -0.559 | 0.175 | 0.185 | 0.077 | -0.0764
CAGACGC | 0.0104 | 0.0229 | 0.0268 | -0.0207 | 0.00767 | -0.719 | 0.136 | -0.0785 | 0.0818 | -0.0209
GCGGTGC | -0.0108 | -0.0415 | -0.0353 | 0.357 | 0.0131 | -0.266 | 0.0615 | -0.00132 | -0.0362 | -0.116
GCCGATT | 0.176 | -0.239 | 0.0928 | -0.517 | 0.148 | 0.185 | -0.335 | -0.0664 | -0.087 | -0.146
TCCGCAG | -0.124 | -0.0379 | -0.432 | -0.59 | -0.102 | -0.737 | -0.0296 | -0.0636 | -0.0962 | -0.236
GCACGAG | -0.0406 | 0.0909 | 0.32 | 1.03 | 0.0243 | -0.00744 | 0.361 | 0.151 | 0.161 | 0.149
CATTGCC | -0.0556 | -0.0612 | -0.602 | 0.59 | 0.152 | -0.194 | -0.237 | -0.0231 | 0.186 | -0.0787
GCACCTC | 0.0071 | -0.131 | 0.0725 | 0.459 | 0.00234 | 0.549 | -0.00516 | -0.0109 | 0.041 | 0.128
TCTTAGA | 0.0647 | -0.0205 | 0.0596 | -0.113 | 0.0936 | -0.779 | 0.068 | -0.0589 | -0.00951 | -0.06
ATCCTGC | 0.0533 | -0.0195 | -0.595 | -0.484 | 0.0529 | -1.09 | 0.0987 | -0.174 | 0.00484 | -0.216
GTTGTAT | 0.149 | -0.0234 | 0.361 | 0.883 | 0.0991 | 1.73 | 0.165 | 0.231 | 0.135 | 0.149
ACGACAT | -0.0185 | 0.0319 | 0.523 | 1.55 | -0.0549 | 1.48 | 0.146 | 0.0748 | -0.0896 | 0.0776
GTCGCTA | -0.077 | 0.0253 | 0.325 | 0.683 | -0.0164 | 1.39 | -0.0133 | 0.00346 | -0.0257 | -0.00163
GCGAGTC | -0.0334 | -0.0261 | 0.137 | 0.533 | 0.0254 | 0.603 | 0.086 | 0.102 | 0.0454 | 0.0629
AGTTATC | 0.0152 | -0.135 | 0.27 | 0.792 | -0.133 | 0.194 | -0.113 | -0.0586 | 0.0574 | 0.101
CTATTAG | 0.04 | -0.00915 | -0.784 | -0.159 | -0.0381 | -1.05 | 0.148 | -0.124 | 0.0375 | -0.116
GGTTGGC | -0.0799 | 0.0234 | 0.539 | 1.16 | -0.0504 | 1.47 | 0.0905 | 0.0299 | 0.0233 | -0.0123
GCATTAA | -0.0471 | -0.0606 | 0.0231 | 0.263 | -0.0295 | -0.13 | -0.0135 | 0.0468 | -0.0544 | 0.0398
CGGCGCC | -0.00956 | -0.08 | -0.18 | -0.032 | -0.0567 | -0.13 | 0.0371 | -0.0486 | -0.00279 | -0.0556
CGAATCA | 0.0613 | 0.256 | 0.31 | -0.196 | 0.0481 | 0.364 | 0.163 | 0.126 | 0.282 | 0.354
GTAATGC | 0.0809 | 0.115 | 0.0545 | 0.283 | 0.0847 | -0.474 | 0.173 | 0.1 | 0.142 | -0.0336
